# Test results reported in the supplement of paper PMC10338343.
# ± gives the standard deviation. This is a selection; strong and weak results do not stand in their true shares.
# Tested on: MIWI (PIWIL1) piRISC loaded with piRNA #1 (30 nt)
# Assay: pre-steady-state target cleavage rate (min^-1); MIWI and MILI are mouse PIWI proteins and EfPiwi is from a freshwater sponge; tags in brackets are library labels; higher = faster piRNA-guided slicing of the target
# Conditions: guide: piRNA #1 5'p-UGAGGUAGUAGGUUGUAUAGUAUCCAGAGG; auxiliary factor: 500 nM mouse GTSF1
# Summary of the method: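 Cleave-'n-Seq: a transcribed, DNA-blocked target RNA library (0.1 nM) was mixed with 1 nM active affinity-purified piRISC carrying one synthetic guide, with or without 500 nM GTSF1 partner protein, in HEPES–potassium acetate buffer at 33 °C for 0–8 or 0–960 min. Uncleaved targets were sequenced and normalised to depth and to weakly complementary targets. Three trials were pooled, and k3 was capped at 0.0001 min^-1. The pre-steady-state cleavage rate came from a burst-and-steady-state fit.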
row,Sequence,pre-steady-state target cleavage rate
1,GGAGACGAUACAAUUCAACCUACUACCUCA,0.664 ± 0.073
2,GGAGACCUAACUAUACAACCUACAACCUGA,0.2 ± 0.07
3,GGAGAGGAUACUAUACAACCUACUACCUUCA,1.14 ± 0.058
4,GCUCAGGAUACUAUACUACCUACUACCUCA,1.54 ± 0.093
5,GGUCUCGAUACUAUACAACCAACUACCUCA,0.149 ± 0.015
6,GGUCUGCAUACUAUACAACCUACAACCUCA,0.292 ± 0.035
7,GGAGACCUUACUAUACAACCUACUAGCACA,0.29 ± 0.048
8,GGAGUCGAUACUAUUCAACCUACUACCUCA,1.58 ± 0.096
9,GGAGACCUAACUUUACAACCUACUACCACA,0.114 ± 0.035
10,GGAGACCUAUCUAUACAACCUACAUACCUCA,0.313 ± 0.043
11,GGAGACCUUACUACUACAACCUACUACCUCA,0.411 ± 0.051
12,GGAGACCAUACUUAUACAACCUACUACCUCA,0.953 ± 0.075
13,GGAGACCUUUCUAUACAACCUACUACCUCA,0.994 ± 0.083
14,GGAGAGGUUACUUUACAACCUACUACCUCA,1.39 ± 0.072
15,GGACUGGAUACUAUACAACCUAUCUACCUCA,0.313 ± 0.035
16,GCUCUGGAUACAAUAGAACCUACUACCUCA,0.787 ± 0.056
17,GGACUGGAUACUAUACAACCAACUACCUCA,0.12 ± 0.012
18,GGUGUGGAUACUAUACAACCUACUACCUCA,1.8 ± 0.092
19,GGACUGGAUACUAUACAACCUACUACCAUCA,0.26 ± 0.038
20,GGAGAGGAUACUAUACAACCAAGUACCUCA,0.0212 ± 0.0052
21,GGAGACCUAUCUAUAGUACCUACUACCUCA,0.0069 ± 0.0022
22,GGAGACCUAUCUAUACAUGCUACUACCUCA,0.0898 ± 0.014
23,GGAGACGAUUCUAUAGAACCUACUACCUCA,1.37 ± 0.091
24,GGACUGGAUACUAUACAACCUAAUACCUCA,0.483 ± 0.052
